# Data: the supplement of paper PMC8728848
# This is one part of the list.
# B1: CPA (Cicer arietinum) (protein)
# chain: MAFSYLNLVLVTLTTLFFLQTTKVKSQKSVSFHITNFTISRPSITLQGTAEFLPNVLLLNDIEHPVFVVGRALYSKPITLWNNKTGKVASFVTSFTFDVQDLKKTVPGHGLVFFLAPSGSEIPFSSDGGNLGVVDGKNAFNRFVGVEFDNFVNSWDPKYSHVGINVNSLISTKTVKWNRVSGELVKVSIVYDSVSTTLTVIVTYKNGQISILSQLVDLKAVLPDTVNIGFSASTTLVSPRQLHNIHSWSFTSTFET
# Experiments:
# Experiment in all cases: glycan array binding signal (z-score within array); higher = stronger binding
# Settings in all cases: glycan notation: IUPAC condensed, linker removed
# [1] = target: Gal(b1-4)GlcNAc(b1-3)Gal(b1-4)GlcNAc
# Outline: (§1)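 Glycan array data were curated from 3228 arrays in the Consortium for Functional Glycomics database and kept only where the protein sequence was available. Glycan names were converted to IUPAC-condensed notation, and columns mapping to the same glycan were averaged. The binding signal is a within-array Z-score, averaged across arrays of the same protein sequence at different concentrations or buffers and across linkers. Negative Z-scores can be read as non-binding.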
# [2] = target: Gal(b1-4)GlcNAc(b1-3)Gal(b1-4)GlcNAc(b1-2)Man(a1-3)[Gal(b1-4)GlcNAc(b1-3)Gal(b1-4)GlcNAc(b1-2)Man(a1-6)]Man(b1-4)GlcNAc(b1-4)GlcNAc
# Outline: as §1
# [3] = target: Gal(b1-4)GlcNAc(b1-3)Gal(b1-4)GlcNAc(b1-2)Man(a1-3)[Gal(b1-4)GlcNAc(b1-3)Gal(b1-4)GlcNAc(b1-2)Man(a1-6)]Man(b1-4)GlcNAc(b1-4)[Fuc(a1-6)]GlcNAc
# Outline: as §1
# [4] = target: Gal(b1-4)GlcNAc(b1-3)Gal(b1-4)GlcNAc(b1-2)[Gal(b1-4)GlcNAc(b1-3)Gal(b1-4)GlcNAc(b1-6)]Man(a1-6)[Gal(b1-4)GlcNAc(b1-3)Gal(b1-4)GlcNAc(b1-2)Man(a1-3)]Man(b1-4)GlcNAc(b1-4)GlcNAc
# Outline: as §1
# [5] = target: Gal(b1-4)GlcNAc(b1-3)Gal(b1-4)GlcNAc(b1-2)[Gal(b1-4)GlcNAc(b1-3)Gal(b1-4)GlcNAc(b1-6)]Man(a1-6)[Gal(b1-4)GlcNAc(b1-3)Gal(b1-4)GlcNAc(b1-2)Man(a1-3)]Man(b1-4)GlcNAc(b1-4)[Fuc(a1-6)]GlcNAc
# Outline: as §1
# [6] = target: Gal(b1-4)GlcNAc(b1-3)Gal(b1-4)GlcNAc(b1-3)Gal(b1-4)GlcNAc
# Outline: as §1
# [7] = target: Gal(b1-4)GlcNAc(b1-3)Gal(b1-4)GlcNAc(b1-3)Gal(b1-4)GlcNAc(b1-2)Man(a1-3)[Gal(b1-4)GlcNAc(b1-3)Gal(b1-4)GlcNAc(b1-3)Gal(b1-4)GlcNAc(b1-2)Man(a1-6)]Man(b1-4)GlcNAc(b1-4)GlcNAc
# Outline: as §1
# [8] = target: Gal(b1-4)GlcNAc(b1-3)Gal(b1-4)GlcNAc(b1-3)Gal(b1-4)GlcNAc(b1-2)Man(a1-3)[Gal(b1-4)GlcNAc(b1-3)Gal(b1-4)GlcNAc(b1-3)Gal(b1-4)GlcNAc(b1-2)Man(a1-6)]Man(b1-4)GlcNAc(b1-4)[Fuc(a1-6)]GlcNAc
# Outline: as §1
# [9] = target: Gal(b1-4)GlcNAc(b1-3)Gal(b1-4)GlcNAc(b1-3)Gal(b1-4)GlcNAc(b1-2)[Gal(b1-4)GlcNAc(b1-3)Gal(b1-4)GlcNAc(b1-3)Gal(b1-4)GlcNAc(b1-6)]Man(a1-6)[Gal(b1-4)GlcNAc(b1-3)Gal(b1-4)GlcNAc(b1-3)Gal(b1-4)GlcNAc(b1-2)Man(a1-3)]Man(b1-4)GlcNAc(b1-4)[Fuc(a1-6)]GlcNAc
# Outline: as §1
# [10] = target: Gal(b1-4)GlcNAc(b1-3)Gal(b1-4)GlcNAc(b1-3)Gal(b1-4)GlcNAc(b1-3)Gal(b1-4)GlcNAc(b1-2)Man(a1-3)[Gal(b1-4)GlcNAc(b1-3)Gal(b1-4)GlcNAc(b1-3)Gal(b1-4)GlcNAc(b1-3)Gal(b1-4)GlcNAc(b1-2)Man(a1-6)]Man(b1-4)GlcNAc(b1-4)GlcNAc
# Outline: as §1
# [11] = target: Gal(b1-4)GlcNAc(b1-3)Gal(b1-4)GlcNAc(b1-3)Gal(b1-4)GlcNAc(b1-3)Gal(b1-4)GlcNAc(b1-2)Man(a1-3)[Gal(b1-4)GlcNAc(b1-3)Gal(b1-4)GlcNAc(b1-3)Gal(b1-4)GlcNAc(b1-3)Gal(b1-4)GlcNAc(b1-2)Man(a1-6)]Man(b1-4)GlcNAc(b1-4)[Fuc(a1-6)]GlcNAc
# Outline: as §1
# [12] = target: Gal(b1-4)GlcNAc(b1-3)Gal(b1-4)GlcNAc(b1-3)Gal(b1-4)GlcNAc(b1-3)Gal(b1-4)GlcNAc(b1-2)[Gal(b1-4)GlcNAc(b1-3)Gal(b1-4)GlcNAc(b1-3)Gal(b1-4)GlcNAc(b1-3)Gal(b1-4)GlcNAc(b1-6)]Man(a1-6)[Gal(b1-4)GlcNAc(b1-3)Gal(b1-4)GlcNAc(b1-3)Gal(b1-4)GlcNAc(b1-3)Gal(b1-4)GlcNAc(b1-2)Man(a1-3)]Man(b1-4)GlcNAc(b1-4)[Fuc(a1-6)]GlcNAc
# Outline: as §1
# [13] = target: Gal(b1-4)GlcNAc(b1-3)Gal(b1-4)GlcNAc(b1-3)Gal(b1-4)GlcNAc(b1-3)Gal(b1-4)GlcNAc(b1-3)Gal(b1-4)GlcNAc(b1-2)Man(a1-3)[Gal(b1-4)GlcNAc(b1-3)Gal(b1-4)GlcNAc(b1-3)Gal(b1-4)GlcNAc(b1-3)Gal(b1-4)GlcNAc(b1-3)Gal(b1-4)GlcNAc(b1-2)Man(a1-6)]Man(b1-4)GlcNAc(b1-4)GlcNAc
# Outline: as §1
# [14] = target: Gal(b1-4)GlcNAc(b1-3)Gal(b1-4)GlcNAc(b1-3)Gal(b1-4)GlcNAc(b1-3)Gal(b1-4)GlcNAc(b1-3)Gal(b1-4)GlcNAc(b1-2)Man(a1-3)[Gal(b1-4)GlcNAc(b1-3)Gal(b1-4)GlcNAc(b1-3)Gal(b1-4)GlcNAc(b1-3)Gal(b1-4)GlcNAc(b1-3)Gal(b1-4)GlcNAc(b1-2)Man(a1-6)]Man(b1-4)GlcNAc(b1-4)[Fuc(a1-6)]GlcNAc
# Outline: as §1
# [15] = target: Gal(b1-4)GlcNAc(b1-3)Gal(b1-4)GlcNAc(b1-3)Gal(b1-4)GlcNAc(b1-3)Gal(b1-4)GlcNAc(b1-3)Gal(b1-4)GlcNAc(b1-2)[Gal(b1-4)GlcNAc(b1-3)Gal(b1-4)GlcNAc(b1-3)Gal(b1-4)GlcNAc(b1-3)Gal(b1-4)GlcNAc(b1-3)Gal(b1-4)GlcNAc(b1-6)]Man(a1-6)[Gal(b1-4)GlcNAc(b1-3)Gal(b1-4)GlcNAc(b1-3)Gal(b1-4)GlcNAc(b1-3)Gal(b1-4)GlcNAc(b1-3)Gal(b1-4)GlcNAc(b1-2)Man(a1-3)]Man(b1-4)GlcNAc(b1-4)[Fuc(a1-6)]GlcNAc
# Outline: as §1
# [16] = target: Gal(b1-4)GlcNAc(b1-3)Gal(b1-4)GlcNAc(b1-3)Gal(b1-4)GlcNAc(b1-3)Gal(b1-4)GlcNAc(b1-3)Gal(b1-4)GlcNAc(b1-3)Gal(b1-4)GlcNAc(b1-2)Man(a1-3)[Gal(b1-4)GlcNAc(b1-3)Gal(b1-4)GlcNAc(b1-3)Gal(b1-4)GlcNAc(b1-3)Gal(b1-4)GlcNAc(b1-3)Gal(b1-4)GlcNAc(b1-3)Gal(b1-4)GlcNAc(b1-2)Man(a1-6)]Man(b1-4)GlcNAc(b1-4)GlcNAc
# Outline: as §1
# [17] = target: Gal(b1-4)GlcNAc(b1-3)Gal(b1-4)GlcNAc(b1-3)GalNAc
# Outline: as §1
# [18] = target: Gal(b1-4)GlcNAc(b1-3)Gal(b1-4)GlcNAc(b1-3)[Gal(b1-4)GlcNAc(b1-3)Gal(b1-4)GlcNAc(b1-6)]GalNAc
# Outline: as §1
# [19] = target: Gal(b1-4)GlcNAc(b1-3)Gal(b1-4)GlcNAc(b1-6)[Gal(b1-3)]GalNAc
# Outline: as §1
binder,measurement,setting,value
B1,glycan array binding signal (z-score),[1],-0.11
same,glycan array binding signal (z-score),[2],2.88
same,glycan array binding signal (z-score),[3],-0.412
same,glycan array binding signal (z-score),[4],0.816
same,glycan array binding signal (z-score),[5],0.148
same,glycan array binding signal (z-score),[6],-0.617
same,glycan array binding signal (z-score),[7],4.32
same,glycan array binding signal (z-score),[8],2.13
same,glycan array binding signal (z-score),[9],0.908
same,glycan array binding signal (z-score),[10],0.022
same,glycan array binding signal (z-score),[11],0.005
same,glycan array binding signal (z-score),[12],-0.066
same,glycan array binding signal (z-score),[13],2.34
same,glycan array binding signal (z-score),[14],1.38
same,glycan array binding signal (z-score),[15],1.58
same,glycan array binding signal (z-score),[16],3.7
same,glycan array binding signal (z-score),[17],3.36
same,glycan array binding signal (z-score),[18],2.14
same,glycan array binding signal (z-score),[19],1.7
